# Source: ChEMBL document CHEMBL4888484, “Replenishing the malaria drug discovery pipeline: Screening and hit evaluation of the MMV Hit Generation Library 1 (HGL1) against asexual blood stage Plasmodium falciparum ,using a nano luciferase reporter read-out” (2022)
# The whole screen tested about 150,000 compounds, of which about 540 (0.36%) showed an effect of 50% or more. Some of the results follow.
# System: Plasmodium falciparum
# Test: Primary screen in NF54 nanoGlo assay, in single point, at 2uM, 72h; a lower Z score goes with more inhibition
# Type: functional, Erythrocyte
# Settings: timepoint 72 hour
SMILES,% Inhibition,Z score
COc1ccc(N[C@@H](C)Cc2cnn(C)c2)cn1,-9%,0.79
COc1ccc(CNC(=O)N2CCCN(C3CCC3)CC2)cc1OC,-8%,1.39
Cc1nc(-c2ccc(N3CCN(C(=O)c4cccc(F)c4)CC3)nc2)sc1C,-9%,1.56
COc1ccc(COC(=O)c2ncoc2C(C)C)cn1,-3%,0.59
CCc1nnc(CN(C)c2nc(C)nc3sccc23)o1,-1%,0.19
O=S(=O)(c1ccc2c(c1)CCCC2)N1CCN(c2cnccn2)CC1,-1%,0.13
COc1cc(Cl)cc(CN(C)CCC[C@H]2CCCO2)c1OC,-2%,0.31
C#CCCCS(=O)(=O)Nc1c(-c2cccc(F)c2)n[nH]c1C1CC1,2%,-0.28
COC(C)(C)CC(=O)Nc1c(C)n[nH]c1C,-4%,0.31
O=C1N(Cc2cccc(F)c2F)CCC[C@@]1(O)CNC1CCCCCC1,-18%,2.62
Cc1ccc(NC(=O)CN2CC3CCCCN3CC2C)cc1 (configuration not stated),-2%,0.18
Cc1ccc(CNC(=O)c2noc(C)c2Cn2nc(C)cc2C)cc1,6%,-0.98
Clc1cnccc1-c1csc(-c2ccoc2)n1,-16%,1.33
Cc1nn(C)c(C)c1C(=O)Oc1cccc(-n2ccnn2)c1,-22%,2.5
O=C(CC[C@H]1CCCN(C(=O)c2cccc(Cl)c2F)C1)N1CCCC1,-13%,1.93
CC(C)N1CCc2c(C#N)c(NCCCN3CCOCC3)n3cnnc3c2C1,-13%,1.39
COc1ccc(Cc2c(C)nc(C)nc2N2CCN(C(=O)C3CCCC3)CC2)cc1,-11%,1.36
C[C@@H](CN(C)C(=O)c1conc1C(C)(C)N)c1ccccc1,9%,-1.11
CCCc1cnc(C)nc1-c1cccc(C(=O)NCCN2CCCC2)c1,-1%,0.23
COc1cccc(-n2c(=O)c(C(=O)NC3CCCC3)c(O)c3cccnc32)c1,-12%,1.59
COc1cccc(-c2ccc(=O)n(CCC(=O)N3CCN(Cc4ccc5c(c4)OCO5)CC3)n2)c1,31%,-0.15
Cn1cnc2c1CCN(C[C@H](O)c1ccc(F)cc1)C2,-6%,0.87

SMILES,% Inhibition,Z score
CC(C)(CNCC(C)(C)c1ccccc1)NS(C)(=O)=O,2%,-0.29
Cc1ncsc1CN[C@@H](C)C1=CCCCC1,-12%,2.37
CCn1nc(C)c(CCN(C)C(=O)Nc2cccc(Cl)c2C)c1C,-7%,1.3
C[C@H](O)CC(C)(C)CNC(=O)NCc1coc2ccccc12,-5%,0.55
[2H]C1=C(C([2H])([2H])[2H])N(CC)C(=O)N[C@@H]1c1cc(Cl)ccc1O,-6%,0.69
Cc1cc2c(cc1S(=O)(=O)N1CCC(C(=O)Nc3ccc(C(C)C)cc3)CC1)OCC(=O)N2,-8%,0.97
CCCn1nc(C2CC2)nc1-c1c[nH]c2ccccc12,-12%,2.47
Cc1ccc(CCC(=O)N[C@H]2COCC[C@@H]2O)cc1C,0%,0.02
COc1ccc2c(c1)Oc1ccccc1N=C2N1CCN(C(=O)Nc2ccc(Cl)cc2)[C@@H](C)C1,-14%,1.41
C[C@@H]1CN(C(=O)NCc2ccc(Cl)cc2)C[C@]1(C)O,-8%,0.92
Cc1c(C(=O)N2CCC(N3CCCS3(=O)=O)CC2)oc2ccccc12,16%,-1.83
Cc1ccc(C)c([C@@H](NCc2ncnn2CCF)c2ccccc2)c1,-4%,0.5
COc1ccc(NC(=O)N2C[C@@H]3C[C@H](C2)c2ccc(NS(=O)(=O)c4ccc(OC)cc4)c(=O)n2C3)cc1,-5%,0.71
Cc1oc2ncnc(N3CCC[C@H](C(=O)NCc4cccnc4)C3)c2c1C,-1%,0.13
Cn1c(-c2n[nH]c3c2CCCC3)nnc1N1CC[C@]2(CNC(=O)C2)C1,-13%,1.9
Cc1cccc2c1N(Cc1cnc3cnccn13)CC2,4%,-0.37
CC1CCC(NC(=O)CC(F)(F)F)CC1 (configuration not stated),-16%,3.07
CCC[C@H](CC)NC(=O)N1CCN(C(=O)CN2CCOCC2)CC1,-9%,1.28
O=C(NCCOc1ccccc1)c1ccc(N2CCC(Cc3ccccc3)CC2)nn1,-12%,1.63
CN1CCO[C@@H](C(=O)NC2CCN(Cc3ccccc3)CC2)[C@@H]1c1ccccc1,-8%,1.06
CCc1c(C(=O)NCc2ccccn2)csc1C,-12%,1.06
COc1ccccc1-n1nc(CC(C)C)nc1[C@H]1CCOC1,-3%,0.26

SMILES,% Inhibition,Z score
Cc1cc(Cl)cc(C)c1NC(=O)N(C)CCCc1nccn1C,-7%,1.27
CCOCC(=O)N(Cc1cnc2ccccn12)C1CC1,-3%,0.44
CC(C)(C)c1cc(N2CCO[C@@H](CCF)C2)ncn1,6%,-0.65
O=C(NC[C@]1(O)CCOC1)NC1CCCC1,-10%,1.17
CCCc1cc(N2CCN(C(=O)c3cccc(N(C)C)c3)CC2)nc2nnc(C)n12,-5%,0.63
Cc1cccc(-c2nc(=O)c(CCC(=O)N3CCCCC3)n[nH]2)c1,3%,-0.35
O=C(CCC1CCCC1)N1CC(N(Cc2ccncc2)CC2CC2)C1,-16%,3.04
COc1ccc(OC)c(CNC(=O)C2CCN(S(=O)(=O)c3ccc4c(ccn4C)c3)CC2)c1,-19%,2.98
Cc1ccc(NC(=O)c2ccc(COc3ccc4c(c3)[C@H](c3ccccc3)N(C(=O)C(C)(C)C)CC4)o2)cc1,-20%,3.22
CN(C(=O)Nc1c(F)cccc1Oc1ccccc1)C1CCOCC1,-4%,0.39
COc1ccccc1CN1CCCN(c2ccc(NC(=O)COc3ccc(Cl)cc3)cn2)CC1,17%,-1.58
O=C(Nc1ccc(Br)c(C2CC2)n1)N1C2CCC1COC2,-9%,1.64
Cc1cc(CN[C@@H](C)CNS(=O)(=O)C2CC2)ccn1,-2%,0.3
COc1ccc(-c2csc3c2c(=O)n(C)c(=O)n3CC(=O)N2CCOCC2)cc1,2%,-0.29
CN(C)C(=O)CCOC(=O)c1ccccc1Cl,7%,-1.02
COc1ccc(Cn2cc([C@H](CC(=O)N3CCCC3)c3ccc(OCc4ccccc4)cc3)c3ccccc32)cc1,-9%,1.48
Cc1c(CNc2cncc(F)c2)cnn1C,-10%,1.44
Cc1ccc(-c2nccn2[C@@H](C)C(N)=O)o1,13%,-1.72
C1CCCC(CN[C@H]2CCOC2)(N2CCOCC2)CC1,2%,-0.2
COCCNCCOc1ccccc1F,-6%,0.5
CC(C)CN(C)[C@@H](C(=O)O)c1cccc(C(=O)N2CCC(C)CC2)c1,5%,-0.48
CCCN1C[C@@H](NC(=O)c2cnc(O)c(Cl)c2)CC1=O,10%,-1.36

SMILES,% Inhibition,Z score
C[C@H](NCc1ccc(C2CC2)cc1F)c1ccccn1,-9%,1.24
CN(CC(=O)Nc1nncs1)S(=O)(=O)c1ccc(Br)cc1,-46%,5.38
CC[C@H](C)[C@@H]1NC(=O)N(c2cccc3ccccc23)C1=O,-9%,1.77
CC1CCN(CCN(C)C(=O)c2cc3ccccc3n2C)CC1,-4%,0.82
CN(C)c1ccc(CNC(=O)c2ccc3c(=O)n4c(nc3c2)CCCCCC4)cc1,0%,0.06
c1ccc(OCCNCCOc2ccccc2)cc1,4%,-0.46
COc1ccc(C2CCCN2C(=O)CC(NC(N)=O)c2ccccc2)cc1OC (configuration not stated),-3%,0.42
Cn1cnnc1CCC(=O)N1CCC[C@H](c2nc3ccccc3s2)C1,4%,-0.82
Cc1ccsc1CNc1nnnn1C,-10%,1.53
O=C(NCC1CC1)NC(C1CC1)C1CC1,-14%,2.11
CCn1c([C@H]2CCCN(c3nc(C)cnc3C)C2)nn(CCN(C)C)c1=O,2%,-0.3
COCCOCc1nc(C2CCN(C(=O)Nc3ccccc3)CC2)no1,1%,-0.07
CCc1csc(N2CCc3c(F)ccc(C(=O)O)c3C2)n1,2%,-0.21
Cc1ccc(-c2nc(-c3cccc4ccccc34)[nH]c2-c2ccccc2)cc1,2%,-0.19
CC(C)Cc1nc(NC(=O)CCNc2ncccn2)n[nH]1,-17%,2.17
CCCc1cc(C(=O)Nc2cccnc2)cs1,-20%,1.81
FC(F)(F)c1nc([C@H]2[C@@H]3CCCC[C@@H]32)c2n1CCNC2,1%,-0.16
COc1ccc(NC(=O)NC(=O)COC(=O)c2cnn(-c3ccccn3)c2C(C)C)cc1,0%,-0.03
CCOC(=O)CC1(S(=O)(=O)c2ccc(F)cc2)CCN(Cc2cnn(C)c2)CC1,-9%,1.75
O=C(O)c1ccc(Cl)c(NC(=O)C(F)(F)F)c1,-4%,0.48
